Values joined by “and” are separate entries in the source; they are usually repeats but may differ in a detail not shown here. Identical values can stand only once. The inconclusive results got no clear call from the source; some entries with a clear call stand among them for comparison. For some of these results: Potencies beside an inconclusive call are fits to weak or partial responses and may not hold up. Active and inactive are the calls of the source. Calls follow the shape of the dose curve; as a rule, active = well fitted curve in the direction sought with a large enough effect; inconclusive = small, poorly fitted or top-dose-only effect, or another doubt; inactive = no such curve, though single readings can be large; an effect the other way counts as inactive or inconclusive.
Tests used:
[1] = Viability qHTS for spleen associated tyrosine kinase inhibitor (SYKi) naive MV4-11 cells (AID 1963823); conditions: MV4-11 AML viability, CellTiter-Glo luminescence, 72 h; series mostly up to 45 µM; also: nearly all actives have a fitted effect of over 40% in size
In short: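 SYKi-naive MV4-11 AML cells, 500 per well, were exposed to library compounds for 72 hr at 37 C, 5% CO2. Viability was then read by CellTiter-Glo luminescence after 10 min at room temperature.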

[2] = Quantitative highthroughput screen to assess conditional lethalithy of NOMO1 cells grown in RPMI1640 with untreated serum (RPMI+s) (AID 1963876); conditions: NOMO1 AML cells in RPMI+serum, CellTiter-Glo viability, 48 h; viability: at 45.8 µM (top of the series); also: nearly all actives have a fitted effect of over 35% in size
In short: (§1)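 Each medium arm—HPLM with 10% dialyzed FBS, or RPMI1640 with 5 mM glucose and 10% untreated or dialyzed FBS—was screened against an 11-point, 3-fold compound titration for 48 h at 37 °C, with CellTiter-Glo luminescence as endpoint.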

[3] = Quantitative highthroughput screen to assess conditional lethalithy of NOMO1 cells grown in RPMI1640 with dialyzed fetal bovine serum (RPMI+ds) (AID 1963877); also: nearly all actives have a fitted effect of over 30% in size
In short: as §1

[4] = Quantitative highthroughput screen to assess conditional lethalithy of P12 Ichikawa cells grown in Human Plasma-Like Medium with dialyzed fetal bovine serum (HPLM+ds) (AID 1963879); conditions: Potency: viability; also: nearly all actives have a fitted effect of over 35% in size
In short: as §1

[5] = Quantitative highthroughput screen to assess conditional lethalithy of P12 Ichikawa cells grown in RPMI1640 with dialyzed fetal bovine serum (RPMI+ds) (AID 1963880); conditions: Potency: P12-Ichikawa viability; also: nearly all actives have a fitted effect of over 35% in size
In short: as §1

[6] = Quantitative highthroughput screen to assess conditional lethalithy of P12 Ichikawa cells grown in RPMI1640 with untreated serum (RPMI+s) (AID 1963881); conditions: Potency: viability; also: nearly all actives have a fitted effect of over 35% in size
In short: as §1

[7] = Quantitative highthroughput screen to assess conditional lethalithy of SEM cells grown in RPMI1640 with unreated serum (RPMI+s) (AID 1963883); conditions: SEM B-ALL cells, CellTiter-Glo viability, 48 h; viability: at 45.8 µM (top of the series); also: nearly all actives have a fitted effect of over 35% in size
In short: as §1

[8] = Cellular viability qHTS for adrenocortical cancer (ACC) cell line SW-13 (AID 1963989); conditions: SW-13 ACC cells viability, CellTiter-Glo, 48 h; activity (max response): stronger effect = lower value; also: nearly all actives have a fitted effect of over 65% in size
In short: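 SW-13 cells in ITS-supplemented serum-free DMEM were plated overnight, then exposed for 48 h at 37C to compound titrations (up to 46 uM final). Viability was read by CellTiter-Glo luminescence; four-parameter logistic fits gave IC50 and efficacy.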

[9] = Cellular viability qHTS for adrenocortical cancer (ACC) cell line NCI-H295R (AID 1963990); conditions: CellTiter-Glo ATP luminescence, 48 h; series mostly up to 46.1 µM; also: nearly all actives have a fitted effect of over 60% in size
In short: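 Luminescent ATP read-out (CellTiter-Glo, 20 min RT) after 48 h drug exposure of NCI-H295R cells; a titration up to 46 uM final. Data normalized to doxorubicin (100% inhibition) and DMSO (0%); 4-parameter fit gives IC50, max response.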

[10] = Quantitative highthroughput screen to assess conditional lethalithy of NOMO1 cells grown in Human Plasma-Like Medium with dialyzed fetal bovine serum (HPLM+ds) (AID 1963878); conditions: NOMO1 AML cells in HPLM+ds, CellTiter-Glo viability, 48 h; viability: at 45.8 µM (top of the series); also: nearly all actives have a fitted effect of over 35% in size
In short: as §1

[11] = Quantitative highthroughput screen to assess conditional lethalithy of SEM cells grown in RPMI1640 with dialyzed fetal bovine serum (RPMI+ds) (AID 1963884); conditions: SEM B-ALL cells, RPMI+dialyzed FBS, CellTiter-Glo viability, 48 h; viability: at 45.8 µM (top of the series); also: nearly all actives have a fitted effect of over 35% in size
In short: as §1

[12] = Quantitative highthroughput screen to assess conditional lethalithy of SEM cells grown in Human Plasma-Like Medium with dialyzed fetal bovine serum (HPLM+ds) (AID 1963882); also: nearly all actives have a fitted effect of over 35% in size
In short: as §1
Potency is read from the fitted curve at half-maximal effect; tags tell the direction and shape of the fitted curve.

In the case of `CNC(=O)c1ccc2c(C(=Nc3cccc(CN(C)C)c3)c3ccccc3)c(O)[nH]c2c1`, the Potency [1] is reported as inconclusive: 2.31 µM [cytotoxic, partial curve] and active: 2.95 µM, the Potency [2] is reported as active: 20.9 µM and the Potency [3] is reported as active: 18.7 µM. For the same compound, the Potency [4] was inconclusive: 4.18 µM [cytotoxic, partial curve, poor fit], the Potency [5] was inconclusive: 4.18 µM [cytotoxic, partial curve, poor fit] and the Potency [6] was inconclusive: 4.18 µM [cytotoxic, partial curve, poor fit]. The Potency [7] was active: 0.935 µM and the Potency [8] was inconclusive: 28.2 µM [cytotoxic, single point].
For `CN(c1ncccc1CNc1nc(Nc2ccc3c(c2)CC(=O)N3)ncc1C(F)(F)F)S(C)(=O)=O`, the Potency [1] was active: 366 nM, the Potency [2] was inconclusive: 33.2 µM [cytotoxic, single point] and the Potency [3] was inconclusive: 23.5 µM [cytotoxic, partial curve]. For the same compound, the Potency [4] was inconclusive: 33.2 µM [cytotoxic, single point], the Potency [5] was inconclusive: 37.2 µM [cytotoxic, single point] and the Potency [6] was inconclusive: 23.5 µM [cytotoxic, single point]. The Potency [9] was inconclusive: 35.5 µM [cytotoxic, single point].
In the case of `CN(C)c1ccccc1CN1CCCN(Cc2ccccc2N(C)C)C1c1ccncc1`, the Potency [1] is reported as inconclusive: 5900 nM [cytotoxic, full curve], the Potency [2] is reported as “inactive” and the Potency [3] is reported as inconclusive: 33.2 µM [cytotoxic, single point]. For the same compound, the Potency [10] was inconclusive: 23.5 µM [cytotoxic, single point], the Potency [6] was “inactive” and the Potency [7] was inconclusive: 11.8 µM [cytotoxic, single point]. For the same compound, the Potency [11] was “inactive” and the Potency [9] was active: 28.2 µM.
With `CN1N=C(N)c2cn([C@@H]3O[C@H](COP(=O)(O)O)[C@@H](O)[C@@H]3O)c3ncnc1c23` the Potency [1] was inconclusive: 525 nM [cytotoxic, full curve], the Potency [2] was inconclusive: 7.43 µM [cytotoxic, full curve] and the Potency [3] was inconclusive: 1.87 µM [cytotoxic, full curve]. The Potency [4] was inconclusive: 0.833 µM [cytotoxic, full curve], the Potency [6] was inconclusive: 0.469 µM [cytotoxic, full curve] and the Potency [8] was inconclusive: 12.6 µM [cytotoxic, partial curve]. For the same compound, the Potency [9] was inconclusive: 1.12 µM [cytotoxic, full curve, poor fit].
In the case of `CN1CCCN(C(=O)c2cccc(-c3ccc(C=C4C(=O)Nc5ccc(Cl)cc54)o3)c2)CC1`, the Potency [1] is reported as active: 517 nM, the Potency [2] is reported as inconclusive: 37.2 µM [cytotoxic, partial curve, poor fit] and the Potency [3] is reported as inconclusive: 23.5 µM [cytotoxic, single point]. The Potency [10] was inconclusive: 37.2 µM [cytotoxic, partial curve, poor fit], the Potency [6] was active: 5.9 µM and the Potency [11] was active: 1.87 µM.
With `O=c1c(O)c(-c2ccc(O)c(O)c2)oc2cc(O)ccc12` the Potency [1] was inconclusive: 2.91 µM [cytotoxic, full curve] and active: 13.2 µM, the Potency [2] was “inactive” and the Potency [3] was inconclusive: 26.4 µM [cytotoxic, partial curve, poor fit]. For the same compound, the Potency [4] was inconclusive: 29.6 µM [cytotoxic, single point], the Potency [5] was inconclusive: 33.2 µM [cytotoxic, single point] and the Potency [6] was inconclusive: 37.2 µM [cytotoxic, single point]. For the same compound, the Potency [12] was inconclusive: 33.2 µM [cytotoxic, single point], the Potency [7] was inconclusive: 37.2 µM [cytotoxic, single point] and the Potency [11] was active: 23.5 µM.
In the case of `c1ccc(CNc2nc(NCc3ccccc3)c3ccccc3n2)cc1`, the Potency [1] is reported as active: 1860 nM, the Potency [2] is reported as inconclusive: 37.2 µM [cytotoxic, single point] and the Potency [3] is reported as inconclusive: 20.9 µM [cytotoxic, single point]. For the same compound, the Potency [4] was “inactive”, the Potency [5] was inconclusive: 23.5 µM [cytotoxic, single point] and the Potency [6] was inconclusive: 33.2 µM [cytotoxic, single point]. For the same compound, the Potency [7] was inconclusive: 29.6 µM [cytotoxic, single point], the Potency [8] was active: 3.98 µM and the Potency [9] was active: 7.08 µM.
In the case of `C#Cc1cccc(Nc2ncnc3cc(OCCOC)c(OCCO)cc23)c1`, the Potency [1] is reported as active: 1480 nM, the Potency [2] is reported as inconclusive: 26.4 µM [cytotoxic, single point] and the Potency [3] is reported as inconclusive: 26.4 µM [cytotoxic, single point]. The Potency [4] was inconclusive: 23.5 µM [cytotoxic, partial curve], the Potency [5] was inconclusive: 23.5 µM [cytotoxic, single point] and the Potency [6] was inconclusive: 26.4 µM [cytotoxic, single point]. The Potency [12] was inconclusive: 18.7 µM [cytotoxic, partial curve], the Potency [7] was active: 20.9 µM and the Potency [8] was active: 6.31 µM. For the same compound, the Potency [9] was inconclusive: 1 µM [cytotoxic, partial curve, poor fit].

Source: PubChem BioAssay (NCATS)
